Here are results for 42 molecules from ChEMBL document CHEMBL4888484, “Replenishing the malaria drug discovery pipeline: Screening and hit evaluation of the MMV Hit Generation Library 1 (HGL1) against asexual blood stage Plasmodium falciparum ,using a nano luciferase reporter read-out” (2022).

In general, % Inhibition refers to the change of the read-out against control, counted positive when it falls.

In all, about 150,000 compounds went through this assay and about 540 (0.36%) showed an effect of 50% or more. This is one part of the list.

This assay concerns Plasmodium falciparum. The assay can be described thus: Primary screen in NF54 nanoGlo assay, in single point, at 2uM, 72h; a lower Z score goes with more inhibition. The format is functional, Erythrocyte. Particulars: timepoint 72 hour.
For `CCN(Cc1ccccc1)c1ccc(NC(=O)c2ccc(C)cc2)cc1C(=O)O`, the “% Inhibition” value is reported as -10% and the Z score amounted to 0.96.

Turning to `CC(C)c1nccc(CN2CCC(C(=O)O)(n3ccc(C(C)(C)C)n3)CC2)n1`, the “% Inhibition” value is -4% and the Z score is on record as 0.79.

As to `COc1ccc(N2CCN(C(=O)CN(C)c3ccccc3)CC2)cc1`, the “% Inhibition” value was -12% and the Z score turned out to be 1.52.

As to `CCn1ncc(C#N)c1NS(=O)(=O)c1cc(C)c(Cl)s1`, the “% Inhibition” value worked out at 2% and the Z score is -0.4.

On to `N#Cc1cn[nH]c1NC(=O)C(=O)N1CCc2ccccc2C1`, for which the “% Inhibition” value stood at 0% and the Z score came to 0.

Turning to `O=C(COc1ccc(Cl)cc1Cl)N1C[C@H]2CCCN[C@H]2C1`, the “% Inhibition” value was determined as 0% and the Z score is on record as -0.03.

Regarding `NC(=O)[C@H]1CCCN1C(=O)c1ccc2nc(-c3ccc(F)cc3)cn2c1`, the “% Inhibition” value was -19% and the Z score stood at 3.7.

On to `O=C(Nc1nnc(COc2ccccc2)o1)C1CCCC1`, for which the “% Inhibition” value turned out to be 9% and the Z score is given as -1.19.

Consider `COc1cccc(-c2ccnc3nc(Cc4cc(F)cc(F)c4)nn23)c1`, for which the “% Inhibition” value came out at 6% and the Z score is reported as -0.73.

As to `Cc1ccc(OCc2ccccc2)c(NC(=O)c2ccn(C)c(=O)c2)c1`, the “% Inhibition” value was -12% and the Z score is 2.21.

On to `O=C(c1ccc(-n2cnnc2)nc1)N1C[C@H]2CC=CC[C@H]2C1`, for which the “% Inhibition” value is listed as -9% and the Z score came out at 0.91.

On to `O=C(NCc1nnc2ccccn12)c1ccc(Oc2ccccc2)cc1`, for which the “% Inhibition” value came out at 4% and the Z score is given as -0.67.

As for `Cc1nc2c3c(F)cccc3nn2c(O)c1CCC(=O)NCCO`, the “% Inhibition” value is 13% and the Z score is recorded as -1.53.

As to `Cc1nc(C(=O)NC2COC2)sc1C`, the “% Inhibition” value is -4% and the Z score was 0.74.

For `NC(=O)CCNC(=O)c1ccc2c(c1)n(CC1CC1)c(=O)n2C1CCCCC1`, the “% Inhibition” value was -8% and the Z score is reported as 1.19.

With `C[C@H](Nc1ccc2nc(C(F)F)sc2c1)c1nc(C2CC2)no1`, the “% Inhibition” value was -14% and the Z score is 2.22.

For `CN1CCOC[C@H]1C(=O)NC(C)(C)c1cc(C(F)(F)F)on1`, the “% Inhibition” value is -6% and the Z score amounted to 0.84.

On to `Cc1nnc(-c2ccccc2C(=O)NC2CCC(N3CCC(C)CC3)CC2)o1` (centres undefined), for which the “% Inhibition” value was -13% and the Z score came out at 1.35.

On to `COc1cccc(C(=O)NCCN(C2CCOCC2)[C@H]2CCN(S(C)(=O)=O)C2)c1C`, for which the “% Inhibition” value is on record as -2% and the Z score was found to be 0.47.

On to `C=CCS(=O)(=O)NC(=O)[C@H](CC)c1ccccc1`, for which the “% Inhibition” value is reported as -10% and the Z score is given as 1.15.

Consider `CC1=C[C@@H](CNS(C)(=O)=O)[C@H](C(C)C)C[C@H]1Cc1nc2ccc(F)cc2[nH]1`, for which the “% Inhibition” value is given as 10% and the Z score was -1.22.

Turning to `CCCn1cnnc1CN(C)CCn1ccc(C)n1`, the “% Inhibition” value was -17% and the Z score was determined as 2.91.

As to `CC1(C(=O)O)CCN(Cc2ccc3c(c2)CCC3)CC1`, the “% Inhibition” value turned out to be 2% and the Z score was -0.44.

Take `COCc1nc(C)c(C(=O)N(C)[C@@H]2CCC[C@H]2O)s1`: the “% Inhibition” value is -9% and the Z score worked out at 1.82.

Turning to `COc1cc(-c2cccc(C(=O)N[C@@H](C)C(F)(F)F)c2)nc(N)n1`, the “% Inhibition” value was determined as 9% and the Z score was -1.18.

As to `CCN1C(=O)c2cccc3c(NC(=O)c4ccc(S(=O)(=O)N5CC(C)CC(C)C5)cc4)ccc1c23` (centres undefined), the “% Inhibition” value is recorded as 0% and the Z score is given as 0.07.

With `O=C(Cc1ccccc1F)Nc1cc(S(=O)(=O)N2CCOCC2)ccc1N1CCOCC1`, the “% Inhibition” value is on record as -8% and the Z score stood at 1.18.

For the molecule `O=C(Nc1cccnc1)[C@H]1CCCN(c2nnc3ccc(C(F)(F)F)cn23)C1`, the “% Inhibition” value is recorded as -11% and the Z score came out at 1.24.

For `Cc1cc(Br)c2c(c1)C(O)(N1CCCC(C)C1)C(=O)N2` (centres undefined), the “% Inhibition” value was 33% and the Z score is -0.79.

For `CC(C)Cc1ccc(CN2CCc3[nH]cnc3[C@H]2c2ccccn2)s1`, the “% Inhibition” value is given as -12% and the Z score was found to be 1.81.

In the case of `COc1ccc(C(C)NCCC(C)O)c(Br)c1` (centres undefined), the “% Inhibition” value turned out to be 5% and the Z score was -0.74.

For `CCc1cnc(CN(C)C(=O)c2nnc(C(C)C)s2)s1`, the “% Inhibition” value turned out to be 4% and the Z score is recorded as -0.38.

Regarding `CCC(COc1ccccc1)NC(=O)C1(F)CCNC1` (centres undefined), the “% Inhibition” value was found to be 1% and the Z score was -0.11.

Turning to `C[C@H](NCC1CCC1)C(=O)Nc1ccccc1`, the “% Inhibition” value is on record as -9% and the Z score is listed as 1.1.

`Cc1nc(CNC(=O)c2cccc(-c3noc(C4CC4)n3)c2)oc1C`: the “% Inhibition” value was found to be 29% and the Z score is -2.91.

As for `CCCCCN(CCO)C(=O)COc1ccc(OCC)cc1`, the “% Inhibition” value is listed as 2% and the Z score is listed as -0.23.

With `CCc1nc2c(s1)[C@@H](NCCN1C(=O)CNC1=O)CCC2`, the “% Inhibition” value is 15% and the Z score is on record as -1.75.

`CCN(CC)C(=O)CN1CCCN(C(=O)c2ccc(Cl)cn2)CC1`: the “% Inhibition” value is on record as -4% and the Z score is 0.49.

Consider `CN1CCC(N(CCc2ccccc2)C(=O)c2ccc3c(c2)OCO3)CC1`, for which the “% Inhibition” value amounted to 16% and the Z score is -2.02.

For the molecule `Cc1ccc(C)c(OCc2cc(=O)n3cccc(C)c3n2)c1`, the “% Inhibition” value stood at 2% and the Z score is on record as -0.34.

As to `CC(C)(C)c1cc(NS(=O)(=O)c2coc3ccccc23)on1`, the “% Inhibition” value is recorded as -7% and the Z score turned out to be 1.04.

For `COc1cc(C(=O)NCc2cccnc2)ccc1OCC(=O)Nc1cccc(C(F)(F)F)c1`, the “% Inhibition” value was 3% and the Z score is reported as -0.33.
